Measured values published in the supplement of paper PMC12632987.
Over roughly 4,500 sequences, “median log2 fold change of GCK-ALFA target abundance (FLAG IP / Myc IP barcode read proportion)” has its median near 0.078; the lowest 2% begin near -0.6. The list shows a part of the results.

B1: GBRAP_64_6497 (protein)
chain: LEELKKELEEELEKAIEHLRKAAELDPENREKYLELAERVEESKKLSVEERLDVLAEIAKEVNELLKEHKDDPEVADELSEALYHISAAAALAAELEEEL
B2: GBRAP_78_6742 (protein)
chain: KAEEVIDETLEVIDRALRALSSLPIEKVGDAMLHLLDAAEALEEAEEEGFPLEKIEEAAKHLGKAIEIIEEKGIELPEEVLEALKKAHEKLKKLAEEKKK
B3: GBRAP_160_3980 (protein)
chain: SEEIEKLKKEIKEIFEEAKEMIKGQSFEERLAIVSVAVGEIILLLEEDPNTSDETVEKVDEIGDELIEYLEENPDLTDEEIEELIEEALKKILEVIDEDA
B4: GBRAP_160_4384 (protein)
chain: SAALAALAAEIEALRAEFVAEAKDLNTAETRTLALGVLAEVAALVWENEAVSEATRDQIMAIIDAAEAELRANADAPPAEIVAITTAAFDKIIALVRAEA
B5: GBRAP_160_4728 (protein)
chain: EERIKEFVEEFREKFLETIELSKDESKEEQNALFEGTAGEILMDAFEEPFLSDEQEDVVAEILDELVEELKKNWDASEEEKKKIVDEKMEELLEKLLELE
B6: GBRAP_74_6553 (protein)
chain: SAALKKEIDAAAKAGDADKLIKLARKAVKEGDIDVAVHALGQLAKLAVKKAKAGDYDELDKLIDAIVEILEKVPDEALTDETWKAIAAAIKAAIEAEKAR
B7: GBRAP_160_3968 (protein)
chain: MEEVEKLKEEIDEIFDETIEMIEGESHEERLTIIRVAVGEVILLASESPLVSDETEEEIAKIGDELVATVEANPDLTEEEIKELIEEAREKIKEVIDKEF
B8: GBRAP_78_6640 (protein)
chain: SIKEKLEEALDLVDEAAKKALTLPEEISNELLYHLVDAASDIEEAIENGGDLEEVEEALKHVEEALKIIKKHNDPELEELKKLVEKAKELLKEVIKELKE
B9: GBRAP_160_4413 (protein)
chain: SALREEVARLFDELEAAALELREEGRREEAIAEVRVGAGEILLLVDEDPRVSDETAERVDAVLDALVATVEANPDMSPEELAALIAAARDEVLAILEEGL
B10: GBRAP_14_3883 (protein)
chain: EEKLQKALKEAEKKFEKALKEAKKAGLEEEAAKIEKKLKEELKKAKEKGDLAAAVIAVARATAELEGAIWMKTEGWSEAEAAAGVRTETANAEYEVDELK
B11: GBRAP_52_5965 (protein)
chain: MEEKMKELLDRALELLKAGDLEGAEKLLREIVETLNDEELELLGKVLVERIKESDLETAELLLELAILLADELEEAGRDERIASDLLGNAAAAAYALEQK
B12: GBRAP_128_3428 (protein)
chain: STEEIVEEVKELLEEMLTADEETQREIAEEIFDKIKEADLETAEKIAEVILEMLPKFTAEQLDILADVGREKLPELTPEKQEILAEVIVAALNRAEELEE
B13: GBRAP_184_5083 (protein)
chain: KVYEAHIEAETEEELLAKLDEVLEAAAKEKANLIVLVDAKGLDVELAVKLIERVGAAKAAGKVPEATIGFREEFTEEEVDRIVAAADAAGVRVVLPLKEE
B14: GBRAP_52_6270 (protein)
chain: MEEEAERLAEEFIRTALEGTEEEVKKFAKEVVETKSQELIALMLEIVVEKAEELDAEELERLLDAFLILEDELEKAGKDTLPAEDAAARLAKLHMEKLKE
B15: GBRAP_160_3972 (protein)
chain: SEEIEELKEEIEEIFEEAKELIEGETFEERLTIVRVAVGEVILLVDSSPLISDETEDEVAEIGDELVERLDANPELTEEEIKALIEEALERIKEVIEKDA
B16: GBRAP_160_4507 (protein)
chain: SEKYKEAAEVAKEAAEFIKEELETLSKEELAVVVAGEAGRVILEADELGVLSDEELDEFAKKSDELVKKILEGDEEEAKEAAKEAIKMFEELAKKLEKKA
B17: GBRAP_11_2708 (protein)
chain: KKEKILKLAEKAEELAKKIEKLIKEGPKKEELEKLLKEVKELAKEAKELGLDEAVVKTLEIAAEELKKAIEDPKTAKEHLKNALAAVRVAAGLILLEAEE
B18: GBRAP_57_6464 (protein)
chain: MSPLEKALEHFEKAIKLIEEGASLEEILEEVEKGLEELDHTLLLDILLLLDPSARSDLSREELRERLLELVRRYLEEKGREEALKALKLMAGQVEMALTE
B19: GBRAP_184_5126 (protein)
chain: TLVRRSVEGENAEELIEKARAVVEEAAAAGARLLLSVFAENMSVEEIIEVIKALGELKREHPQVEVILVVENELSEEEIDKVVKAADEAGVRVVLAIPEE
B20: GBRAP_160_4473 (protein)
chain: MEKVKKAAEDLRKDVEEELKKLADESPEQIATGAAVEVGSSLLEWSEKGLITDEQEDILAEAMDKILELGKTKKDASPEEIIKEIKKIVDEAVKKILESA
B21: GBRAP_35_5553 (protein)
chain: DFDKEVIEMVRATAEDLLLAVDDLPVDTLITMATQIAELTLKVAKDEKENKEELKELLEATLELLDAVIEKAEKEGAPEEDIEKLRKLKKELEEALKEAE
B22: GBRAP_35_5513 (protein)
chain: SSIDTETEMLVSTLEDATLAVEDLDPETLKKIVESLAELAREFILQNKNDLEALKRVKEELEKLAEALRKRGLDDPLIKEALEKVEEVIKLAEEEIKKIE
B23: GBRAP_150_3890 (protein)
chain: SLEELLTIADTALDILELDIESGGKTIDQTLKVVQALVDEAKNFSPELQKLAEEALKKVEEAKKLKEEGGDQKEIDKLLKEAKKKLEELIKLLEKKIKEK
B24: GBRAP_52_6338 (protein)
chain: MEEEIRKAAEEIADAVVAGDLDRAVELTREVAEKLSLEEVRKVALLTAELIAERLPDREDLAAEAIFRIADVIEEVLGDEELADEVEAHMARLLYERRLA
B25: GBRAP_160_4450 (protein)
chain: MKTKEELIKEVEEVRERTIELIEGESHENRVVIVEGEFGELLMELAEDERVSDELEDKVAEIIDELVDTLKANPDLSLEEIKELIEEAAEKIKEAIEKEL
B26: GBRAP_9_7147 (protein)
chain: LEELIEKMKEVFEDMVELVREIVPEEVKPVVDKMREEAEKEFEEIKKDKSITKEEAVEKAKKLVEKFTEAVKAEVDPETARMVEAVGLTALLEIEELKEK
B27: GBRAP_128_3181 (protein)
chain: SIEEVKKRTREAMEKIKNSSPEEAREIAEELFEWLKTLSLEEAEAAIETMEELLPELSPEHLEIIADVAREHRPTFTPEKAELVAGLEVEALNLLEEKEE
B28: GBRAP_128_3199 (protein)
chain: MSEEALAELRALADEVIATKTDAAIARFAAAVREALEAGRIDLDALEEIVEYLGKHLDADTLARVEDALREALADVGPEYLATASGALGEAIMEKEEEEE
B29: GBRAP_52_5914 (protein)
chain: MEEEIRKKVLEIIELIKEGKEEEAKKLAKELVEKYNEEELLILIEVLVELVLESPVEELEYWWKAAELIAEALEEAGKDEALADELLARTAAAMYERLQR

Target: GABARAP, O95166
Sequence (O95166 whole entry, the tested form may be a part): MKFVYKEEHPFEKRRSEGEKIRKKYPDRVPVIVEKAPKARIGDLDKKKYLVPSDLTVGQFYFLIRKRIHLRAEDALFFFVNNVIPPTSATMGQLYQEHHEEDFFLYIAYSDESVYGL
Experiment: median log2 fold change of GCK-ALFA target abundance (FLAG IP / Myc IP barcode read proportion) (log2 ratio); each designed protein is fused to an ALFA-tag nanobody in HEK293 cells to bring the named protein to FLAG-tagged glucokinase (GCK); Myc marks an untargeted standard; higher = target protein stabilised (more abundant)
Conditions: target protein: 3xFLAG-MCP-GCK-ALFA reporter; HEK293 landing pad (RPLP)
Outline: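 An ALFA-nanobody-fused binder library was recombined into HEK293 landing-pad cells and induced with 2 μg mL^−1 doxycycline. Cells were transfected with a plasmid expressing a FLAG-tagged target and a Myc-tagged standard. After 48 h, lysates underwent anti-FLAG and anti-Myc immunoprecipitation, and circular RNA barcodes were reverse transcribed, amplified and sequenced. Target abundance is the per-binder median log2 ratio of FLAG to Myc barcode read proportions. Barcodes needed ≥10^−7 proportion in both replicates, binders ≥3 barcodes per replicate, and a 10^−6 pseudocount was added; the two replicates were pooled.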

Going from B1 to B2, the “median log2 fold change” value falls from 0.215 to 0.00785.

First: B3
Second: B4
The “median log2 fold change” value of the first is lower: -0.403 for the first, 0.14 for the second.

First: B5
Second: B6
The “median log2 fold change” value of the first is higher: -0.172 for the first, -0.699 for the second.

Going from B7 to B8, the “median log2 fold change” value rises from -0.456 to 0.23.

First: B9
Second: B10
The “median log2 fold change” value of the first is lower: -0.253 for the first, 0.393 for the second.

First: B11
Second: B12
The “median log2 fold change” value of the first is lower: -0.409 for the first, 0.0458 for the second.

B13 and B14 are within 0.2 log units of each other in “median log2 fold change” value: 0.19 for the first, 0.16 for the second.

Compared with B15, B16 is higher in “median log2 fold change” value: -0.36 for the first, 0.142 for the second.

B17 and B18 are within 0.2 log units of each other in “median log2 fold change” value: 0.297 for the first, 0.249 for the second.

B19 and B20 are within 0.2 log units of each other in “median log2 fold change” value: -0.152 for the first, -0.0382 for the second.

Going from B21 to B22, the “median log2 fold change” value rises from -0.742 to 0.222.

Compared with B23, B24 is lower in “median log2 fold change” value: 0.232 for the first, -0.249 for the second.

B25 and B26 are within 0.2 log units of each other in “median log2 fold change” value: 0.121 for the first, 0.0519 for the second.

B27 and B28 are within 0.2 log units of each other in “median log2 fold change” value: 0.301 for the first, 0.224 for the second.

With B29 the “median log2 fold change” value was -0.0875.
